# The list shows a part of the results.
# B1: Mincle (Homo sapiens), Q9ULY5 (protein)
# chain: MNSSKSSETQCTERGCFSSQMFLWTVAGIPILFLSACFITRCVVTFRIFQTCDEKKFQLPENFTELSCYNYGSGSVKNCCPLNWEYFQSSCYFFSTDTISWALSLKNCSAMGAHLVVINSQEEQEFLSYKKPKMREFFIGLSDQVVEGQWQWVDGTPLTKSLSFWDVGEPNNIATLEDCATMRDSSNPRQNWNDVTCFLNYFRICEMVGINPLNKGKSL
# How the values were obtained:
# Assay in all cases: glycan array binding signal (z-score within array); higher = stronger binding
# Conditions in all cases: glycan notation: IUPAC condensed, linker removed
# GlcA(b1-6)Gal = biological target: GlcA(b1-6)Gal
# In short: (§1)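 The Consortium for Functional Glycomics database supplied 3228 glycan arrays, of which those lacking an available protein sequence were dropped. The binding signal, a within-array Z-score, was averaged across arrays of the same protein sequence and across linkers. Negative scores can be read as non-binding.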
# [1] = biological target: GlcNAc(a1-3)Gal(b1-4)GlcNAc
# In short: as §1
# [2] = biological target: GlcNAc(a1-4)Gal(b1-3)GlcNAc
# In short: as §1
# [3] = biological target: GlcNAc(a1-4)Gal(b1-4)GalNAc
# In short: as §1
# [4] = biological target: GlcNAc(a1-4)Gal(b1-4)GlcNAc
# In short: as §1
# [5] = biological target: GlcNAc(a1-4)Gal(b1-4)GlcNAc(b1-3)Gal(b1-4)Glc
# In short: as §1
# [6] = biological target: GlcNAc(a1-4)Gal(b1-4)GlcNAc(b1-3)Gal(b1-4)GlcNAc
# In short: as §1
# [7] = biological target: GlcNAc(a1-4)Gal(b1-4)GlcNAc(b1-3)Gal(b1-4)GlcNAc(b1-3)Gal(b1-4)GlcNAc
# In short: as §1
# [8] = biological target: GlcNAc(a1-4)Gal(b1-4)GlcNAc(b1-3)Gal(b1-4)[Fuc(a1-3)]GlcNAc(b1-3)Gal(b1-4)[Fuc(a1-3)]GlcNAc
# In short: as §1
# [9] = biological target: GlcNAc(a1-6)Gal(b1-4)GlcNAc
# In short: as §1
# [10] = biological target: GlcNAc(b1-2)Gal(b1-3)GalNAc
# In short: as §1
# [11] = biological target: GlcNAc(b1-2)Man(a1-3)[GlcNAc(b1-2)Man(a1-6)]Man(b1-4)GlcNAc(b1-4)GlcNAc
# In short: as §1
# [12] = biological target: GlcNAc(b1-2)Man(a1-3)[GlcNAc(b1-2)Man(a1-6)]Man(b1-4)GlcNAc(b1-4)[Fuc(a1-6)]GlcNAc
# In short: as §1
# [13] = biological target: GlcNAc(b1-2)[GlcNAc(b1-4)]Man(a1-3)[GlcNAc(b1-2)Man(a1-6)]Man(b1-4)GlcNAc(b1-4)GlcNAc
# In short: as §1
# GlcNAc(b1-3)Gal = biological target: GlcNAc(b1-3)Gal
# In short: as §1
# [14] = biological target: GlcNAc(b1-3)Gal(b1-3)GalNAc
# In short: as §1
# GlcNAc(b1-3)Gal(b1-4)Glc = biological target: GlcNAc(b1-3)Gal(b1-4)Glc
# In short: as §1
# [15] = biological target: GlcNAc(b1-3)Gal(b1-4)GlcNAc
# In short: as §1
# [16] = biological target: GlcNAc(b1-3)Gal(b1-4)GlcNAc(b1-3)Gal(b1-4)GlcNAc
# In short: as §1
# GlcNAc(b1-3)GalNAc = biological target: GlcNAc(b1-3)GalNAc
# In short: as §1
# GlcNAc(b1-3)Man = biological target: GlcNAc(b1-3)Man
# In short: as §1
# [17] = biological target: GlcNAc(b1-3)[GlcNAc(b1-4)][GlcNAc(b1-6)]GlcNAc
# In short: as §1
# [18] = biological target: GlcNAc(b1-3)[GlcNAc(b1-6)]Gal(b1-4)GlcNAc
# In short: as §1
# [19] = biological target: GlcNAc(b1-3)[GlcNAc(b1-6)]GalNAc
# In short: as §1
# [20] = biological target: GlcNAc(b1-4)Gal(b1-4)GlcNAc
# In short: as §1
# GlcNAc(b1-4)GlcNAc = biological target: GlcNAc(b1-4)GlcNAc
# In short: as §1
# [21] = biological target: GlcNAc(b1-4)GlcNAc(b1-4)GlcNAc
# In short: as §1
# [22] = biological target: GlcNAc(b1-4)GlcNAc(b1-4)GlcNAc(b1-4)GlcNAc(b1-4)GlcNAc
# In short: as §1
# [23] = biological target: GlcNAc(b1-4)GlcNAc(b1-4)GlcNAc(b1-4)GlcNAc(b1-4)GlcNAc(b1-4)GlcNAc
# In short: as §1
# [24] = biological target: GlcNAc(b1-4)[GlcNAc(b1-6)]GalNAc
# In short: as §1
# [25] = biological target: GlcNAc(b1-6)Gal(b1-4)GlcNAc
# In short: as §1
# GlcNAc(b1-6)GalNAc = biological target: GlcNAc(b1-6)GalNAc
# In short: as §1
# GlcNAc3Prop(b1-4)GlcNAc = biological target: GlcNAc3Prop(b1-4)GlcNAc
# In short: as §1
# [26] = biological target: GlcNAc6S(b1-3)Gal(b1-4)GlcNAc
# In short: as §1
# Kdn(a2-3)Gal(b1-3)GalNAc = biological target: Kdn(a2-3)Gal(b1-3)GalNAc
# In short: as §1
# Kdn(a2-3)Gal(b1-3)GlcNAc = biological target: Kdn(a2-3)Gal(b1-3)GlcNAc
# In short: as §1
binder,measurement,setting,value
B1,glycan array binding signal (z-score),GlcA(b1-6)Gal,-0.485
same,glycan array binding signal (z-score),[1],-0.389
same,glycan array binding signal (z-score),[2],-0.019
same,glycan array binding signal (z-score),[3],-0.638
same,glycan array binding signal (z-score),[4],-0.088
same,glycan array binding signal (z-score),[5],-0.295
same,glycan array binding signal (z-score),[6],-0.34
same,glycan array binding signal (z-score),[7],0.955
same,glycan array binding signal (z-score),[8],1.44
same,glycan array binding signal (z-score),[9],-0.411
same,glycan array binding signal (z-score),[10],-0.485
same,glycan array binding signal (z-score),[11],1.47
same,glycan array binding signal (z-score),[12],0.845
same,glycan array binding signal (z-score),[13],-0.194
same,glycan array binding signal (z-score),GlcNAc(b1-3)Gal,0.183
same,glycan array binding signal (z-score),[14],-0.236
same,glycan array binding signal (z-score),GlcNAc(b1-3)Gal(b1-4)Glc,-0.3
same,glycan array binding signal (z-score),[15],-0.245
same,glycan array binding signal (z-score),[16],-0.06
same,glycan array binding signal (z-score),GlcNAc(b1-3)GalNAc,-0.451
same,glycan array binding signal (z-score),GlcNAc(b1-3)Man,-0.399
same,glycan array binding signal (z-score),[17],-0.38
same,glycan array binding signal (z-score),[18],-0.457
same,glycan array binding signal (z-score),[19],-0.082
same,glycan array binding signal (z-score),[20],-0.45
same,glycan array binding signal (z-score),GlcNAc(b1-4)GlcNAc,-0.246
same,glycan array binding signal (z-score),[21],-0.246
same,glycan array binding signal (z-score),[22],0.253
same,glycan array binding signal (z-score),[23],-0.352
same,glycan array binding signal (z-score),[24],-0.437
same,glycan array binding signal (z-score),[25],-0.471
same,glycan array binding signal (z-score),GlcNAc(b1-6)GalNAc,-0.548
same,glycan array binding signal (z-score),GlcNAc3Prop(b1-4)GlcNAc,-0.102
same,glycan array binding signal (z-score),[26],-0.321
same,glycan array binding signal (z-score),Kdn(a2-3)Gal(b1-3)GalNAc,0.09
same,glycan array binding signal (z-score),Kdn(a2-3)Gal(b1-3)GlcNAc,-0.522

# Reference: the supplement of paper PMC8728848
